# Results from PubChem BioAssay AID1346428 (National Center for Advancing Translational Sciences (NCATS), 2018).
# Several values for one entry are separate records, joined by “and”; a condition that tells them apart may be missing. Identical values can stand only once. Screen size: about 48,000 compounds; about 1,200 (2.5%) were called active. Roughly 2% stayed inconclusive and do not appear here.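 How the source made its calls: active means activation of at least 60% and not above a set upper limit (about 1 call in 100 departs from these limits); inconclusive means activation of 40% to 60%, or above that upper limit; inactive means activation under 40%.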 This is one part of the list. The source holds several records for some structures; these can differ, active in one and inactive in another.
# Target: Probable G-protein coupled receptor 32 (Homo sapiens) (UniProt O75388)
# UniProt O75388, sequence (O75388 whole entry, looked up): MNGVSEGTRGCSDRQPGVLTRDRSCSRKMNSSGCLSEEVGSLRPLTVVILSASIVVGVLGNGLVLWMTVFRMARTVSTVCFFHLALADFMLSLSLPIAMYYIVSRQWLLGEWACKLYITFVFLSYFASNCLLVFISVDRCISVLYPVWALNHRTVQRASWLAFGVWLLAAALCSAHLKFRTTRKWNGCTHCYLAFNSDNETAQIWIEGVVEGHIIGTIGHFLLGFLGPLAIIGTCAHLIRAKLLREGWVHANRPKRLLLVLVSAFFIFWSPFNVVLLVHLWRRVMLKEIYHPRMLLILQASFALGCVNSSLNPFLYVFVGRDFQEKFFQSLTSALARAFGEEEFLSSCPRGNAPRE
# Experiment: qHTS for Agonists of Human Resolvin D1 Receptor DRV1; further: 0% is about no effect
# Details: CHO-K1 GPR32 beta-arrestin PathHunter luminescence, 90 min; at 76.9 µM; stronger effect = higher value; zero percent set by DMSO-only wells
# Method in brief: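 Luminescent readout of beta-Gal complementation quantifies ligand-induced beta-arrestin association with GPR32 in CHO-K1 cells; 90 min compound incubation at 37 °C, detection 1 h at room temperature.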
row,Structure (SMILES),activation
1,Cc1ccc(-c2nc3c4ccccc4n(Cc4cccc(Cl)c4)c(=O)n3n2)cc1,inactive: -8.93%
2,CCN1CCN(CCCNC(=O)Cn2nc(C)n3c(cc4cc(C)ccc43)c2=O)CC1,inactive: -10.4%
3,CCOC(=O)Cc1ccc(NC(=O)N2CC(CC)Oc3ccccc32)cc1 (stereo not given),inactive: -29.4%
4,CCc1ccc(S(=O)(=O)c2nnn3c2nc(N2CCCC(C)C2)c2cc(Cl)ccc23)cc1 (stereo not given),inactive: -3.76%
5,COc1ccc2nc(N3CCN(C(=O)c4ccco4)CC3)sc2c1,inactive: 13.7%
6,COc1ccc(OC)c(CNC(=O)C2COc3ccccc3C2)c1 (stereo not given),inactive: -20.2%
7,O=C(CCc1ccc(O)cc1)c1c(O)cc(O)cc1O,inactive: 6.04%
8,COc1ccc2nc(NC(=O)c3ccc(S(=O)(=O)N4CCCC(C)C4)cc3)sc2c1 (stereo not given),inactive: 0.119%
9,CC1=C(C(=O)Nc2ccccc2C)C(c2ccccn2)n2nc(SCc3ccccc3F)nc2N1 (stereo not given),inactive: -9.82%
10,O=C(CSc1nc(=O)n(Cc2ccco2)c2c1CCC2)NCc1ccc(F)cc1,inactive: -9.03%
11,Cc1nc2nc(NC(=O)c3ccc(Cl)cc3)[nH]n2c(=O)c1Cc1ccccc1,inactive: 1.88%
12,CCc1ccc(NC(=O)CSc2nc(=O)n(Cc3ccco3)c3c2CCC3)cc1,inactive: -14.1%
13,Cc1ccc(S(=O)(=O)c2nnn3c2nc(N2CCN(c4ccccc4F)CC2)c2ccccc23)cc1C,inactive: -6.46%
14,O=c1[nH]c(SCc2ccc(Br)cc2)nc2c1CCCC2,inactive: 35.7%
15,CC(NC(=O)Cn1c(-c2cccs2)cc2cc(F)ccc21)c1ccccc1 (stereo not given),inactive: -14.3%
16,O=C(NC1CC(=O)N(c2ccc(Cl)cc2)C1)c1cccs1 (stereo not given),inactive: -1.38%
17,CCC(C)NC(=O)c1c(-c2ccccc2)c(-c2ccccc2)nn(C)c1=O (stereo not given),inactive: -7.13%
18,COc1ccc(-c2cc(C(=O)Oc3ccc(C)c(C)c3)c3ccccc3n2)cc1,inactive: -37.9%
19,Cc1cccn2c(=O)c3cc(C(=O)NCc4ccccc4Cl)sc3nc12,inactive: -9.63%
20,C[C@H]1O[C@@H](n2cc(F)c(=O)[nH]c2=O)[C@H](O)[C@H]1O,inactive: 3.91%
21,O=C(Cn1c(=O)n(Cc2ccc3c(c2)OCO3)c(=O)c2ccc(C(=O)NC3CCCCC3)cc21)Nc1ccccc1F,inactive: -21.8%
22,CCOC(=O)c1cc(-c2ccccc2)n(CCCC(=O)Nc2ccc(C)cc2C)c1C,inactive: -17.9%

row,Structure (SMILES),activation
1,Cc1ccc(C(=O)NC2(C(F)(F)F)C(=O)Nc3c2c(=O)[nH]c(=O)n3CCc2ccccc2)cc1 (stereo not given),inactive: 5.37%
2,Oc1cccc(Nc2ncnc3sc4c(c23)CCCC4)c1,active: 66.2%
3,CS(=O)(=O)N1CCc2cc(C(=O)NCc3ccccc3)ccc21,inactive: 6.73%
4,Cc1cccc(-n2c3nc(=O)n(C)c(=O)c-3cc3ccc(Cl)cc32)c1C,inactive: -7.34%
5,Cc1noc2ncnc(NCc3cccc(Cl)c3)c12,inactive: 30.9%
6,Cc1c(C(=O)N2CCC(C(=O)Nc3ccc(F)cc3)CC2)sc2nc[nH]c(=O)c12,inactive: -3.78%
7,CC(C)(C)C(=O)N1CCN(c2nc3c(F)cccc3s2)CC1,inactive: -0.705%
8,CCOc1ccc(-n2c(SCC(=O)N3CCCCC3)nc3c([nH]c4ccccc43)c2=O)cc1,inactive: 18.7%
9,Cc1ccc2c(=O)c(C(=O)c3ccccc3)cn(CC(=O)Nc3ccccc3)c2n1,inactive: 12.9%
10,COc1cccc(-c2nnc3n(Cc4ccccc4Cl)c(=O)c4ccccc4n23)c1O,inactive: -3.2%
11,O=C(NCc1ccc2c(c1)CCN2C(=O)c1ccncc1)c1ccc(Cl)cc1,inactive: -7.01%
12,CC(C)Oc1ccc(CNC(=O)CCCn2c(=O)c3cccn3c3cccnc32)cc1,inactive: -9.28%
13,O=C(c1ccccc1)C(O)c1ccccc1 (stereo not given),inactive: -13.4%
14,CCOC(=O)C(Cc1c[nH]c2ccccc12)NC(=O)COc1ccc(Cl)cc1 (stereo not given),inactive: 32%
15,COCCN(CCOC)C(=O)c1cc2c(=O)n3ccccc3nc2n1C,inactive: -7.69%
16,Cc1c(Cl)cccc1NC(=O)CN1C(=O)CCn2nc(-c3cccn3C)cc21,inactive: 0.914%
17,COc1cccc(C(=O)NC2=NC(c3ccc(N(C)C)cc3)CC(=O)N2)c1 (stereo not given),inactive: 9.12%
18,O=C(CSc1nc(-c2ccccc2)cn1-c1ccccc1)Nc1ccccc1,inactive: -27.8%
19,COc1cc(-c2nc3ccc(C)cn3c2Nc2ccc(Cl)cc2)ccc1O,inactive: 28.8%
20,CCn1c(NCc2cccc(Cl)c2)nc2ccccc21,inactive: 32.5%
21,O=C(NCCCN1CCCCC1)c1cc(Sc2ccc(Cl)cc2)nc2ccccc12,inactive: -23.3%
22,Cc1c[nH]c2ccccc12,inactive: -2.91%

row,Structure (SMILES),activation
1,Cc1cc(C)c(C(=O)Nc2ccccc2)c(SCC(=O)Nc2ccc(Br)cc2C)n1,inactive: -17.2%
2,O=c1[nH]c2cc([N+](=O)[O-])c([N+](=O)[O-])cc2[nH]c1=O,inactive: 3.21%
3,O=S(=O)(c1ccc(Br)cc1)c1nnn2c1nc(NCc1cccs1)c1sccc12,inactive: -12.8%
4,CC(=O)c1ccc(N2CCN(C3C(=O)c4ccccc4N3C(C)=O)CC2)cc1 (stereo not given),inactive: -28.3%
5,COc1ccc(-c2cc(C(=O)NCCc3ccccc3)c3cc(C(C)C)ccc3n2)cc1,inactive: -20.7%
6,COc1ccc(-n2cc(C(=O)NCc3cccc(OC)c3)c3ccccc3c2=O)cc1,inactive: -5.79%
7,COc1ccc(Cl)cc1NC(=O)c1nn(C)c2c1CS(=O)(=O)c1ccccc1-2,inactive: -2.74%
8,COc1ccccc1NC(=O)CCn1c(=O)oc2cc(Cl)ccc21,inactive: -7.31%
9,CCOc1cc(-c2nc(-c3ccc(-c4ccc(OC)cc4)nc3OC)no2)cc(OCC)c1OCC,inactive: 19.6%
10,COCCCNC(=O)C1CCN(c2cc(C)nc3c(-c4ccc(OC)c(OC)c4)c(C)nn23)CC1,inactive: -10%
11,Cc1c(Cl)cccc1NC(=O)Cn1nc(C)c2sc3ccccc3c2c1=O,inactive: -6.96%
12,Cc1ccc(C)c(S(=O)(=O)c2nnn3c2nc(Nc2ccc(F)c(Cl)c2)c2sccc23)c1,inactive: -10.7%
13,CCSc1nc2c(c(=O)[nH]c(=O)n2C)n1CC(O)COc1ccc(Cl)cc1 (stereo not given),inactive: 9.21%
14,COc1ccc(N2CCN(C(=O)c3ccc4c(c3)CCN4S(C)(=O)=O)CC2)cc1,inactive: 1.54%
15,CCCCOC(=O)c1ccc(NC(=O)Cc2coc3ccc(C(C)C)cc23)cc1,inactive: -23.6%
16,Cc1ccc2c(c1)N(C(=O)N1CCC(C(=O)NCc3ccco3)CC1)CC(C)O2 (stereo not given),inactive: -4.86%
17,Cc1ccc(S(=O)(=O)CCC(=O)N2CCN(c3nc4c(C)c(Cl)ccc4s3)CC2)cc1,inactive: 25.7%
18,CN=C(NC#N)NCCSCc1csc(N=C(N)N)n1,inactive: 2.56%
19,COc1cc(C(=O)N2CCc3c([nH]c4ccccc34)C2c2ccccc2)cc(OC)c1OC (stereo not given),inactive: -30.5%
20,Cc1cccc(C(=O)Nc2nc(-c3ccc(Br)cc3)ns2)c1,inactive: -12.4%
21,Cc1cccc(N(CC(=O)NCCSc2ccc(Cl)cc2)S(=O)(=O)c2ccccc2)c1C,inactive: -21.9%
22,COc1ccccc1OCCn1c(-c2ccc(Br)cc2)nc2ccccc2c1=O,inactive: -8.66%

row,Structure (SMILES),activation
1,CC(=O)N1CCC2(CC1)OC(=O)C(C)=C2C(=O)Nc1ccccc1C(F)(F)F,inactive: -8.67%
2,CCOC(=O)C1CCN(C(=O)Cn2ncc3c([nH]c4ccc(C)cc43)c2=O)CC1,inactive: -8.97%
3,CSc1ncc(C(=O)N2CCN(c3ccc(F)cc3)CC2)c(C)n1,inactive: -3.21%
4,COc1ccc(OC)c(C(O)CNC(=O)CN)c1 (stereo not given),inactive: -6.14%
5,CC(S)C(=O)NCC(=O)O (stereo not given),inactive: -40.6%
6,CCCC(=O)O[C@]1(C(=O)COC(=O)CC)CC[C@H]2[C@@H]3CCC4=CC(=O)CC[C@]4(C)[C@H]3[C@@H](O)C[C@@]21C,inactive: 6.42%
7,CN(C)CCN1C(=O)c2ccccc2N(C)c2ccccc21,inactive: -4.75%
8,CCCC(=O)OC[C@@H](OC(=O)CCC)[C@@H](OC(=O)CCC)[C@H](Cn1c2nc(=O)[nH]c(=O)c-2nc2cc(C)c(C)cc21)OC(=O)CCC,inactive: -3.31%
9,CCOC(=O)C1CCC(CN(Cc2c(Cl)cccc2Cl)S(=O)(=O)c2ccc(F)cc2)CC1 (stereo not given),inactive: -18.7%
10,COc1cccc(-c2nn(C)c3sc(C(=O)N4CCN(c5cccc(C)c5)C(C)C4)cc23)c1 (stereo not given),inactive: 20.2%
11,CCc1nnc(SCc2nc(-c3ccc(OC)cc3)oc2C)c2cc3sccc3n12,inactive: -22.8%
12,COc1ccccc1CCNC(=O)Cn1ccc2cc(S(=O)(=O)N3CCCCCC3)ccc21,inactive: -7.95%
13,Cc1ccc(C)c(N2CCN(C(=O)c3cc(S(=O)(=O)N4CCCC4)cn3C)CC2)c1,inactive: -10.3%
14,Cc1ccc(Cl)cc1N1CCN(CCNC(=O)Nc2ccc(Cl)cc2)CC1,active: 84.1%
15,COc1ccc(N2CCN(C(=O)c3nc(-c4ccc(Cl)cc4)n4c3CCCCC4)CC2)cc1,inactive: -11.2%
16,CN1CCN(CCCN2c3ccccc3Sc3ccc(C(F)(F)F)cc32)CC1,active: 63.7% and inactive: 23.3%
17,CCOc1ccc(CNC(=O)c2ccc(CS(=O)c3ccccc3)o2)cc1 (stereo not given),inactive: -37.7%
18,O=C(C1CCN(S(=O)(=O)c2cccc3nonc23)CC1)N1CCN(c2ccccc2)CC1,inactive: -3.37%
19,COc1ccc(NC(=O)c2nnn(Cc3ccc(Br)cc3F)c2N)c(OC)c1,inactive: 35.1%
